Test results: paper PMC4336329 (PLoS ONE, 2015)
Hit rate of the full screen: of about 310,000 compounds, about 2,200 (0.71%) showed an effect of 50% or more. Effects have a minus sign here. This is one part of the list.

Biological target: human ether-à-go-go-related gene (hERG) potassium channel (human, UniProt Q12809)
Assay: primary screen, population patch clamp on CHO cells stably expressing hERG

human ether-à-go-go-related gene (hERG) potassium channel, sequence (Q12809 whole entry, looked up): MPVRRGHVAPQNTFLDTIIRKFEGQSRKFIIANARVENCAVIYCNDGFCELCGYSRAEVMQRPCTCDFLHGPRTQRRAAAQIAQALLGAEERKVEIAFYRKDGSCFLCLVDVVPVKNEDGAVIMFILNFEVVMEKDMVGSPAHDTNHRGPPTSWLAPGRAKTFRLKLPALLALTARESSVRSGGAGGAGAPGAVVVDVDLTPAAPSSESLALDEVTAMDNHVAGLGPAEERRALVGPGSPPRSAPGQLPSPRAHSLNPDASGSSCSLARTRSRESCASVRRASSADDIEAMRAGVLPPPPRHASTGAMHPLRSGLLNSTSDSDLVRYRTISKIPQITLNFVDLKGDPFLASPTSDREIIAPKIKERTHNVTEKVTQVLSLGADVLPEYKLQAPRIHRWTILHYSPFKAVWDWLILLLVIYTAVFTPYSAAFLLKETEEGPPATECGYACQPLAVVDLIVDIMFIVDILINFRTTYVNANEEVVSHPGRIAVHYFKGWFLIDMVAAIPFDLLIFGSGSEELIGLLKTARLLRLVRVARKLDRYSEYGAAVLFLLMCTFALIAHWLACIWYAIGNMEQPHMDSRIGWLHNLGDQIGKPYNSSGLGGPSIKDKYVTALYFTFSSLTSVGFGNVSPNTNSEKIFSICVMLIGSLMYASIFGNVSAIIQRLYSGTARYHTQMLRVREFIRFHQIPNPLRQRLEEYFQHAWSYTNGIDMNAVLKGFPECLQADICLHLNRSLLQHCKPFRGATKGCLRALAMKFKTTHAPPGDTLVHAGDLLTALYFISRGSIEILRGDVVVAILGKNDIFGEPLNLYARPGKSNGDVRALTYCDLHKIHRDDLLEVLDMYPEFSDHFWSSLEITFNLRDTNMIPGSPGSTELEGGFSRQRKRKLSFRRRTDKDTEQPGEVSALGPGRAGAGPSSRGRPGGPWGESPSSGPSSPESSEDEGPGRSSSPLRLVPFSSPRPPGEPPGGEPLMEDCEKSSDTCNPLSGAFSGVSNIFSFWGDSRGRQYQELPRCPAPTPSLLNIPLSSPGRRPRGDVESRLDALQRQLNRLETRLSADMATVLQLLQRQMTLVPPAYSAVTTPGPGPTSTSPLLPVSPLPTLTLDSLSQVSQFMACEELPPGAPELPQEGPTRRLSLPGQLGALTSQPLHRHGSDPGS

| Compound | hERG current change (%, negative = inhibition) at 1uM [%] |
| --- | --- |
| Cc1ccccc1C(=O)NC(NCC1CCCO1)C(Cl)(Cl)Cl (stereo not drawn) | 7.12 |
| Cc1cn([C@H](C(=O)NCCCCCCCCCCC(=O)N2CCN(C(=O)OC(C)(C)C)CC2)[C@@H](C)O)nn1 | 19.3 |
| O=c1cc(O)c(-c2cccc(C(F)(F)F)c2)c(Cl)[nH]1 | 13.7 |
| Cc1ccc(CS(=O)(=O)CCC(=O)NCc2ccccn2)cc1 | 14 |
| CC(=O)C1=C(O)C(=O)N(c2ccc(O)cc2)C1c1ccc([N+](=O)[O-])cc1 (stereo not drawn) | 8.46 |
| Cc1cc(NS(=O)(=O)c2ccc(NC(=O)CN3C(=O)NC(C)(c4ccccc4)C3=O)cc2)nc(C)n1 (stereo not drawn) | -0.243 |
| COC(=O)[C@@]1(Cc2ccc(OC)cc2)[C@H]2c3cc(C(=O)N4CCCC4)n(Cc4c(CO)[nH]cc(C)c4=O)c3C[C@H]2CN1C(=O)c1ccccc1 | 14 |
| CCCCCC(=O)Nc1ccc(N2CCN(S(C)(=O)=O)CC2)cc1 | 13.4 |
| CC(C)C(NC(=O)C1CCCCC1)C(=O)Nc1ccncc1 (stereo not drawn) | 9.58 |
| Cc1ccccc1S(=O)(=O)Nc1cccnc1 | 11.7 |
| COc1ccc(C(=O)Cc2ccccc2)cc1OC | 4.34 |
| CCN(CC(=O)NCCc1ccc(S(N)(=O)=O)cc1)Cc1ccccc1 | 15.9 |
| CC(=O)NC(Cc1ccccc1)C(=O)OCC(=O)c1ccc(F)cc1 (stereo not drawn) | 11.6 |
| C/C(=N/NC(=O)Cn1nc2ccccc2n1)c1ccc(F)cc1 | 1.61 |
| CCOC(=O)C1=C(C)Nc2ccccc2N=C1NC(=O)CCCN1C(=O)c2ccccc2C1=O | 6.38 |
| Cc1ccccc1C(=O)c1cccn1CC(=O)NC(C)c1ccc2c(c1)OCCO2 (stereo not drawn) | 3.25 |
| CCCCN1C(=O)C(NC(=O)CC(C)C)(C(F)(F)F)C2=C1CC(C)(C)CC2=O (stereo not drawn) | 11 |
| CCOC(=O)c1cc(-c2ccccc2)nc2ccc(C)cc12 | 5.94 |
| O=c1[nH]cnc2nn(-c3ccccc3)nc12 | 19.3 |
| C=CCC(O)c1c(-c2ccccc2)nn(C)c1Cl (stereo not drawn) | 23.7 |
| CCN(CC)Cc1c(O)ccc2c([N+](=O)[O-])c(C)n(-c3ccc(OC)cc3)c12 | 0.542 |
| Cc1ccoc1C(=O)N1CCN(C(=O)c2occc2C)CC1 | 15.9 |
| CC(O)CCC(=O)NCCNC(=O)CCC(C)O (stereo not drawn) | -2.85 |
| COc1ccc(-c2nc(CSCC(=O)NCCCN3CCCC3=O)c(C)o2)cc1OC | 18.4 |
